Results taken from the supplement of paper PMC8728848.
This is one part of the list.

Tests used:
Assay in all cases: glycan array binding signal (z-score within array); higher = stronger binding
Conditions in all cases: glycan notation: IUPAC condensed, linker removed
Fuc(a1-2)Gal = target: Fuc(a1-2)Gal
Method in brief: (§1)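 The binding signal is a Z-score computed within each array and averaged over linkers. Arrays of the same protein sequence at different concentrations or buffers were also averaged together. Data originate from 3228 arrays in the Consortium for Functional Glycomics database, kept only where the protein sequence was available.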

Fuc(a1-2)Gal(b1-3)GalNAc = target: Fuc(a1-2)Gal(b1-3)GalNAc
Method in brief: as §1

[1] = target: Fuc(a1-2)Gal(b1-3)GalNAc(a1-3)[Fuc(a1-2)]Gal(b1-4)Glc
Method in brief: as §1

[2] = target: Fuc(a1-2)Gal(b1-3)GalNAc(a1-3)[Fuc(a1-2)]Gal(b1-4)GlcNAc
Method in brief: as §1

[3] = target: Fuc(a1-2)Gal(b1-3)GalNAc(b1-3)Gal
Method in brief: as §1

[4] = target: Fuc(a1-2)Gal(b1-3)GalNAc(b1-3)Gal(a1-4)Gal(b1-4)Glc
Method in brief: as §1

[5] = target: Fuc(a1-2)Gal(b1-3)GalNAc(b1-4)[Neu5Ac(a2-3)]Gal(b1-4)Glc
Method in brief: as §1

Fuc(a1-2)Gal(b1-3)GlcNAc = target: Fuc(a1-2)Gal(b1-3)GlcNAc
Method in brief: as §1

[6] = target: Fuc(a1-2)Gal(b1-3)GlcNAc(b1-2)Man(a1-3)[Fuc(a1-2)Gal(b1-3)GlcNAc(b1-2)Man(a1-6)]Man(b1-4)GlcNAc(b1-4)GlcNAc
Method in brief: as §1

[7] = target: Fuc(a1-2)Gal(b1-3)GlcNAc(b1-2)Man(a1-3)[Fuc(a1-2)Gal(b1-3)GlcNAc(b1-2)Man(a1-6)]Man(b1-4)GlcNAc(b1-4)[Fuc(a1-6)]GlcNAc
Method in brief: as §1

[8] = target: Fuc(a1-2)Gal(b1-3)GlcNAc(b1-3)Gal(b1-4)Glc
Method in brief: as §1

[9] = target: Fuc(a1-2)Gal(b1-3)GlcNAc(b1-3)GalNAc
Method in brief: as §1

[10] = target: Fuc(a1-2)Gal(b1-3)GlcNAc(b1-3)[Fuc(a1-2)Gal(b1-3)GlcNAc(b1-6)]GalNAc
Method in brief: as §1

[11] = target: Fuc(a1-2)Gal(b1-3)GlcNAc(b1-3)[Gal(b1-4)GlcNAc(b1-6)]Gal(b1-4)Glc
Method in brief: as §1

[12] = target: Fuc(a1-2)Gal(b1-3)GlcNAc(b1-3)[Neu5Ac(a2-6)Gal(b1-4)GlcNAc(b1-6)]Gal(b1-4)Glc
Method in brief: as §1

[13] = target: Fuc(a1-2)Gal(b1-3)GlcNAc6S
Method in brief: as §1

[14] = target: Fuc(a1-2)Gal(b1-3)[Fuc(a1-4)]GlcNAc
Method in brief: as §1

[15] = target: Fuc(a1-2)Gal(b1-3)[Fuc(a1-4)]GlcNAc(b1-2)Man(a1-3)[Fuc(a1-2)Gal(b1-3)[Fuc(a1-4)]GlcNAc(b1-2)Man(a1-3)]Man(b1-4)GlcNAc(b1-4)GlcNAc
Method in brief: as §1

[16] = target: Fuc(a1-2)Gal(b1-3)[Fuc(a1-4)]GlcNAc(b1-2)Man(a1-3)[Fuc(a1-2)Gal(b1-3)[Fuc(a1-4)]GlcNAc(b1-2)Man(a1-6)]Man(b1-4)GlcNAc(b1-4)[Fuc(a1-6)]GlcNAc(b1-4)[Fuc(a1-6)]GlcNAc
Method in brief: as §1

[17] = target: Fuc(a1-2)Gal(b1-3)[Fuc(a1-4)]GlcNAc(b1-3)[Fuc(a1-3)[Gal(b1-4)]GlcNAc(b1-6)]Gal(b1-4)Glc
Method in brief: as §1

[18] = target: Fuc(a1-2)Gal(b1-3)[Fuc(a1-4)]GlcNAc(b1-3)[Gal(b1-4)GlcNAc(b1-6)]Gal(b1-4)Glc
Method in brief: as §1

Fuc(a1-2)Gal(b1-4)Glc = target: Fuc(a1-2)Gal(b1-4)Glc
Method in brief: as §1

Fuc(a1-2)Gal(b1-4)Glc6S = target: Fuc(a1-2)Gal(b1-4)Glc6S
Method in brief: as §1

Fuc(a1-2)Gal(b1-4)GlcNAc = target: Fuc(a1-2)Gal(b1-4)GlcNAc
Method in brief: as §1

[19] = target: Fuc(a1-2)Gal(b1-4)GlcNAc(b1-2)Man
Method in brief: as §1

[20] = target: Fuc(a1-2)Gal(b1-4)GlcNAc(b1-2)Man(a1-3)[Fuc(a1-2)Gal(b1-4)GlcNAc(b1-2)Man(a1-6)]Man(b1-4)GlcNAc(b1-4)GlcNAc
Method in brief: as §1

[21] = target: Fuc(a1-2)Gal(b1-4)GlcNAc(b1-2)Man(a1-3)[Fuc(a1-2)Gal(b1-4)GlcNAc(b1-2)Man(a1-6)]Man(b1-4)GlcNAc(b1-4)[Fuc(a1-6)]GlcNAc
Method in brief: as §1

[22] = target: Fuc(a1-2)Gal(b1-4)GlcNAc(b1-2)[Fuc(a1-2)Gal(b1-4)GlcNAc(b1-4)]Man(a1-3)[Fuc(a1-2)Gal(b1-4)GlcNAc(b1-2)Man(a1-6)]Man(b1-4)GlcNAc(b1-4)GlcNAc
Method in brief: as §1

[23] = target: Fuc(a1-2)Gal(b1-4)GlcNAc(b1-3)Gal(b1-4)GlcNAc
Method in brief: as §1

[24] = target: Fuc(a1-2)Gal(b1-4)GlcNAc(b1-3)Gal(b1-4)GlcNAc(b1-2)Man(a1-3)[Fuc(a1-2)Gal(b1-4)GlcNAc(b1-3)Gal(b1-4)GlcNAc(b1-2)Man(a1-6)]Man(b1-4)GlcNAc(b1-4)GlcNAc
Method in brief: as §1

B1: GS13846A-bth-444-19-444 (Bacteroides thetaiotaomicron) (protein)
chain: SCENEFDVSDKADSLISVTVNTLNNQAAYNVGETAQAELWIQRGGLKDASGKVQFVVDPLLLDSLNQEDKTNYELLPENCYEMTNTEFTVDKNELCGYITYHPEKILALSAYNETKYVLPLRLISNDLAINPARNTSFLAFTILEPIVHISNAGVYNINPDLTSTMDIQIGVPFTNKWDILCNLTEDLSLIDEYNQINKVNFTLLPENAYTAPESVTLQEGVSQITASYQLKNNLVPGNYILPIKIGSITASQGGVPNNSLVIDEESNVLFCIVKEGNKINKSGWEVIECSSEHAGNEATYMIDDNESTYWHCKFKNEAGSSVPPFHFIIDMKKEITIAQIDLLNRGDGAANNIKWVEFYASNNNSEWDKIGAGDFNDEGTRATFRYYVKSTKARYLKLIIPEGYGNNCPPAAIRELTVYGLEGNN
glycan array binding signal (z-score) (Fuc(a1-2)Gal): -0.378
glycan array binding signal (z-score) (Fuc(a1-2)Gal(b1-3)GalNAc): -0.247
glycan array binding signal (z-score) [1]: -0.228
glycan array binding signal (z-score) [2]: -0.335
glycan array binding signal (z-score) [3]: 0.688
glycan array binding signal (z-score) [4]: -0.194
glycan array binding signal (z-score) [5]: -0.273
glycan array binding signal (z-score) (Fuc(a1-2)Gal(b1-3)GlcNAc): -0.287
glycan array binding signal (z-score) [6]: 0.682
glycan array binding signal (z-score) [7]: -0.352
glycan array binding signal (z-score) [8]: -0.215
glycan array binding signal (z-score) [9]: -0.177
glycan array binding signal (z-score) [10]: -0.101
glycan array binding signal (z-score) [11]: -0.129
glycan array binding signal (z-score) [12]: -0.312
glycan array binding signal (z-score) [13]: 0.028
glycan array binding signal (z-score) [14]: -0.171
glycan array binding signal (z-score) [15]: -0.423
glycan array binding signal (z-score) [16]: 0.113
glycan array binding signal (z-score) [17]: -0.365
glycan array binding signal (z-score) [18]: -0.035
glycan array binding signal (z-score) (Fuc(a1-2)Gal(b1-4)Glc): -0.176
glycan array binding signal (z-score) (Fuc(a1-2)Gal(b1-4)Glc6S): -0.399
glycan array binding signal (z-score) (Fuc(a1-2)Gal(b1-4)GlcNAc): -0.474
glycan array binding signal (z-score) [19]: -0.245
glycan array binding signal (z-score) [20]: 0.384
glycan array binding signal (z-score) [21]: 0.194
glycan array binding signal (z-score) [22]: -0.079
glycan array binding signal (z-score) [23]: -0.352
glycan array binding signal (z-score) [24]: -0.07
